Assay results taken from patent US9669044B2, “Aminoglycoside and azole compositions and methods” (Utah State University, priority 2010, dated 2017).

How the values were obtained:
Parameters in all cases: key: +++, considerable activity; ++, moderate activity; −−−, no activity
[1] = tested on: Staphylococcus aureus ATCC 6538; test: Disk diffusion growth inhibitory assay; settings: PDA-CA medium
Description: (§1) TGI, Escherichia coli B, Staphylococcus aureus ATCC 6538, Micrococcus luteus, and Candida albicans ATCC 10231 were obtained from the American Type Culture Collection (Manassas, Va., USA). Fusarium graminearum strain B-4-5A was obtained from the Small Grain Pathology Program, University of Minnesota, Minneapolis Minn., USA. Saccharomyces cerevisiae W303C and Rhodotorula pilimanae were obtained from Dr. J. Y. Takemoto, Utah State University, Logan, Utah, USA). Aspergillus flavus, Fusarium oxysporum, Fusarium culmorum, Microdochium nivale, Mucor haemalis, Ulocladium spp., Penicillium spp., Rhizopus stolonifer and Cladosporium cladosporioides were obtained from Dr. B. Kropp (Utah State University, Logan, Utah, USA) and Aspergillus niger was obtained from Dr. C. Nischwitz (Utah State University, Logan, Utah, USA). Filamentous fungi and yeasts were cultivated at 35° C. in PDB-CA. Bacterial strains were grown at 37° C. for 24 h on Luria-Bertani medium (14) except for Staphylococcus aureus ATCC6538 which was grown on Mueller-Hinton medium (Difco, B D, Franklin Lakes, N.J., USA).
(§2) In vitro antifungal activities were determined by the general methods of the Clinical and Laboratory Standards Institute (NCCLS. Reference method for broth dilution antifungal susceptibility testing of filamentous fungi. Approved standard M38-A (National Committee for Clinical Laboratory Standards, Wayne, Pa., 2002)). For MIC tests, Fusarium graminearum, Rhodotorula pilimanae, and Aspergillus flavus were grown in PDB-CA medium for 48 h at 28° C. with aerobic shaking For disk diffusion growth inhibitory assays, various fungal species were inoculated in the middle of PDA-CA medium plate surfaces. Sterilized paper disks (0.5 cm diameter) were placed on the inoculated agar medium surfaces equidistant and around the fungal inoculum. Eight μL aliquots of test solutions (10 mg mL^−1) were applied to the disks, and the plates were incubated for 24 to 48 h at 28° C. before examination of the inhibition patterns seen as cleared zones of growth inhibition surrounding the disks. Assays for determination of MICs were conducted in sterile, flat-bottomed 96-well microtiter plates (Corning Costar, Corning, N.Y.) in the range of 500 to 1 μg mL^−1. Stock solutions of analogs were prepared at concentrations of 2 mg mL^−1 in water. In microtiter plates, 50 μL aliquots of stock solutions were added in the third column and 10 consecutive two-fold serial dilutions were made in each row with sterile distilled water. Then, 40 μL of PDB-CA medium and 10 μL aliquots of a 100,000 macroconidia per mL fungal suspension were added to each well. Negative (90 μL of growth medium and 10 μL of water) and positive (90 μL of growth medium and 10 μL of culture or macroconidia) controls were placed in separate wells. The microtiter plates were incubated at 28° C. and visually inspected and scored every 24 h. Microbroth dilution assays in a single MIC test were replicated three times, and each test repeated at least twice.

[2] = tested on: Escherichia coli TG1; settings: disk diffusion, PDA-CA medium
Description: as §1, with “Bacterial strains were grown at 37° C. for 24 h on Luria-Bertani medium (14) except for Staphylococcus aureus ATCC6538 which was grown on Mueller-Hinton medium (Difco, B D, Franklin Lakes, N.J., USA).” left out
(§3) In vitro antifungal activities were determined by the general methods of the Clinical and Laboratory Standards Institute (NCCLS. Reference method for broth dilution antifungal susceptibility testing of filamentous fungi. Approved standard M38-A (National Committee for Clinical Laboratory Standards, Wayne, Pa., 2002)). […] The microtiter plates were incubated at 28° C. and visually inspected and scored every 24 h. […]

[3] = tested on: Mucor haemalis; test: Disk diffusion growth inhibitory assay; settings: PDA-CA medium
Description: as §1, §2

[4] = tested on: Candida albicans ATCC 10231; test: Disk diffusion growth inhibitory assay; settings: PDA-CA medium
Description: as §1, §2

[5] = tested on: Ulocladium spp.; test: Disk diffusion growth inhibitory assay; settings: PDA-CA medium
Description: as §1, §2

[6] = tested on: Rhodotorula pilimanae; test: Disk diffusion growth inhibitory assay; settings: Rhodotorula piliminae, PDA-CA medium
Description: as §1, §2

[7] = tested on: Rhizopus stolonifer; test: Disk diffusion growth inhibitory assay; settings: PDA-CA medium
Description: as §1, §2

[8] = tested on: Fusarium oxysporum; test: Disk diffusion growth inhibitory assay; settings: PDA-CA medium
Description: as §1, §2

[9] = tested on: Saccharomyces cerevisiae W303C; settings: disk diffusion, PDA-CA medium
Description: as §1, with “Bacterial strains were grown at 37° C. for 24 h on Luria-Bertani medium (14) except for Staphylococcus aureus ATCC6538 which was grown on Mueller-Hinton medium (Difco, B D, Franklin Lakes, N.J., USA).” left out
as §3

Measured: Relative Activity (zone of inhibition diameter)

CCCCCCCCS(=O)(=O)OCC1OC(OC2C(N)CC(N)C(OC3OC(CN)C(O)C(O)C3O)C2O)C(O)C(N)C1O (stereo not drawn) [K20, 6″-O-octanesulfonylkanamycin A]
−−−: [1] | [2]

NCC1O[C@H](OC2C(N)CC(N)[C@@H](OC3O[C@H](CO)C(O)[C@@H](N)[C@H]3O)[C@H]2O)C(O)[C@@H](O)[C@@H]1O (stereo partly drawn) [kanamycin A]
not listed: [1] | [2]
−−−: all other assays above
